Here are results for eight molecules from the supplement of paper PMC8674133.

Recombinant human monoclonal antibodies (heavy:light variable regions). ELISA EC50 on the named antigen, from 10 µg/ml down; IC50 / IC90 against spike pseudovirus on 293T-ACE2 cells, 48 h; lower = stronger. Calls: IC50 above 1,000 ng/ml = non-neutralizing; EC50 above 2,000 ng/ml = non-binder. The source prints 1000 for neutralization that was not reached; it is given as >1000 ng/ml. A few antibodies were first reported in earlier work of the same group.

B1: C1448 (protein)
chain 1: QVQLVQSGAEVKKPGASVKVSCKASGYTFTSYGITWVRQAPGQGLEWVGWISTFNGDTNYAQRLQGRVTMTTDTSTSTAYMELRSLRSDDTAVYYCARGPSGSYLDLDYWGQGTLVTVSS
chain 2: EIVLTQSPATLSLSPGERATLSCRASQSVRSYVAWYQQKPGQAPRLLIYDASNRATGIPARFSGSGSGTDFTLTISSLEPEDFAVYYCQQRYNWPPELTFGGGTKVEIK
B2: C2480 (protein)
chain 1: QVQLVQSGGEVQRPGASVKVSCKASGYTFTSYGISWVRQAPGQGLEWMGWISTFEGITNYAQKLQGRVTMTTDTSTSTAYMELGSLRSDDTAVYFCARVTGTYHSDRSGLPGMIYYFDYWGQGTLVTVSS
chain 2: EIVMTQSPATLSVSPGERATLSCRASQSISNNLAWYQQKPGQTPRLLIYGASTRATGIPARFSGSGSGTDFTLTITSLQSEDLAVYYCQQYDDWPPTWTFGQGTKVEIK
B3: C1445 (protein)
chain 1: EVQLVESGGDLVQPGGSLRLSCAASGITVSRNYMSWVRQAPGKGLKWVSTIYSGGSTFYADSVKGRFTISRDNSKNTLYLQMNSLRAEDTAVYYCARGAGYYYGMDVWGQGTTVTVSS
chain 2: DIQLTQSPSFLSASIGDRVTITCRASQGISNYLAWYQQKPGKAPKLLIYAASTLQSGVPARFSGTGSGTEFTLTISSLQPEDFATYYCQQLDDNSNFGGGTKVEIK
B4: C1446 (protein)
chain 1: EVQLLESGGGLVQPGGSLRLSCAASGFTFSTYAMYWVRQAPGKGLEWVSGISGGGGSTYYADSVKGRFTISRDNSKNTLHLQMKSLRADDTAVYYCAKTLGRSGFLWFGAVFDYWGQGILVTVSS
chain 2: QSALTQPASVSGSPGQSITISCTGTSSDVGGYDYVSWYQHHPGRAPKLMIYDVSNRPSGVSNRFSGSKSGNTASLTISGLQAEDEADYYCSSYTTSSAIFGGGTKLTVL
B5: C1236 (protein)
chain 1: QVQLVESGGGVVQPGRSLRLSCAASGFTFSSYSMHWVRQAPGKGLEWVAVILYDGSMKLYADSVKGRYTISRDNSKNTLYLQMNSLRPEDTAVYYCARDEGPTVTLFDHWGQGTLVTVSS
chain 2: DIQMTQSPSSLSASVGDRVTITCRASQSINSYLNWYQQKPGKAPKLLIYVTSSLQSGVPLRFSGSGSGTDFTLTISSLQPEDFATYYCQQSYSTPPWTFGQGTKVEIK
B6: C1235 (protein)
chain 1: QVQLVQSGAEVKKPGSSVKVSCKASGGTFRNYAISWVRQAPGQGLEWMGRIIPITDIANYAQKFEGRVTITADKSTSTAYMELSSLKSEDTAVYYCARQSGVYYDAPAPWGQGTLVTVSS
chain 2: DIQMTQSPSSLSASVGDRVTITCQASQDISNYLNWYQQKPGKAPKLLIYDASNLETGVPSRFSGSGSGTDFTFTISSLQPEDFATYYCQQYDNLPFTFGPGTKVDIK
B7: C1447 (protein)
chain 1: EVQLVESGGGLVQPGGSLRLSCAASGFTFSGYNMNWVRQAPGKGLEWVSYISRRSTAMYYAGSVMGRFTISRNDATNSLYLQMHSLSVEDTAVYYCAREYEGSYGAFDYWGQGTLVTVSS
chain 2: DIQMTQSPSSLSASIGDRVTITCRASQSISTYLNWYQQKPGKAPKLLIYAASDLQSGVPSRFSGSGSGTDFTLTISSLQPEDFATYYCQQSYTLFTFGPGTKVDIK
B8: C1449 (protein)
chain 1: EVQLVESGGGLVQPGGSLRLSCSASGFTFSTYSMNWVRQAPGKGLEYVSGISSNGDIADYADSVKGRFTISRDNSKNTLYLQMSSLRTEDTAVYYCVKDTLDHFTVFDYWGQGTLVTVSS
chain 2: DIQMTQSPSSLSASVGDRVTITCRASQTISRYLNWYQQKPGKAPKLLIYAASSLQSGVPSRFSGSGSGTDFSLTISSLQREDFATYYCQQSYTTPFTFGQGTKLEIK

In one assay the target is SARS-CoV-2 Wuhan-Hu-1 spike pseudovirus. In words: pseudovirus neutralization IC50; higher = weaker neutralization. On the procedure:
(§1)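 Single-round luciferase reporter pseudovirus mixed with antibody dilutions and put on 293T-ACE2 cells for 48 h; signal relative to no-antibody wells, four-parameter fit.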
For B1, the “pseudovirus neutralization IC50” value is above 1 µg/mL.

For the molecule B2, the “pseudovirus neutralization IC50” value worked out at 0.268 µg/mL.

For the molecule B3, the “pseudovirus neutralization IC50” value turned out to be 0.0105 µg/mL.

As to B4, the “pseudovirus neutralization IC50” value was above 1 µg/mL.

In the case of B5, the “pseudovirus neutralization IC50” value was found to be 0.85 µg/mL.

With B6, the “pseudovirus neutralization IC50” value is above 1 µg/mL.

Turning to B7, the “pseudovirus neutralization IC50” value stood at 0.00296 µg/mL.

Take B8: the “pseudovirus neutralization IC50” value was above 1 µg/mL.

A further assay shares this target. In words: pseudovirus neutralization IC90; higher = weaker neutralization. The procedure:
as §1
Consider B1, for which the “pseudovirus neutralization IC90” value was above 1 µg/mL.

Take B2: the “pseudovirus neutralization IC90” value is above 1 µg/mL.

B3: the “pseudovirus neutralization IC90” value worked out at 0.0467 µg/mL.

As for B4, the “pseudovirus neutralization IC90” value is above 1 µg/mL.

In the case of B5, the “pseudovirus neutralization IC90” value was above 1 µg/mL.

Turning to B6, the “pseudovirus neutralization IC90” value is above 1 µg/mL.

With B7, the “pseudovirus neutralization IC90” value was found to be 0.0368 µg/mL.

For the molecule B8, the “pseudovirus neutralization IC90” value was above 1 µg/mL.

Another assay concerns the target SARS-CoV-2 Wuhan-Hu-1 spike receptor-binding domain. In words: ELISA binding EC50; higher = weaker binding; ELISA of recombinant human antibody on coated antigen, from 10 µg/ml in fourfold dilutions; four-parameter fit. For orientation: An ELISA detects its analyte on a solid surface through an enzyme-linked reagent.
Consider B1, for which the “ELISA binding EC50” value came to 0.00157 µg/mL.

B2: the “ELISA binding EC50” value was 0.00309 µg/mL.

For the molecule B3, the “ELISA binding EC50” value is 0.00231 µg/mL.

Regarding B4, the “ELISA binding EC50” value is 0.00281 µg/mL.

Take B5: the “ELISA binding EC50” value came to 0.00131 µg/mL.

Take B6: the “ELISA binding EC50” value was above 10 µg/mL.

Turning to B7, the “ELISA binding EC50” value worked out at 0.00131 µg/mL.

Turning to B8, the “ELISA binding EC50” value was 0.00189 µg/mL.
